Some of the results follow. The data describe in vitro nicking of single-stranded DNA by Rep domains at 3 µM enzyme and 37 °C for 1 h; the strands have 90 letters, of which the middle is given. A value is the log2 ratio of uncut reads to the pool without enzyme; uncut sequences lie near 0, cut ones below; no hit call is given. The scaling is to total reads; uncut strands gain when others are lost, and binding without cutting may add a little.
Assays:
Experiment in all cases: uncleaved DNA left, log2 of reads against the no-enzyme library (log2 ratio); higher = less cleavage (more negative = more Rep cleavage of the k-mer); sequences stand for … in CTCGTCCG…ACCGGAGA
[1] = system: T1, Rep nickase domain of Muscovy duck circovirus
T1 sequence (residues 1-111, tag not shown): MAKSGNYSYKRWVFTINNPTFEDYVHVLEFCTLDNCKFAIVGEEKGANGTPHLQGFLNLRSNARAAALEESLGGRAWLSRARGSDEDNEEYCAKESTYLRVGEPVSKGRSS
Procedure: (§1)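 A pool of 90-nt single-stranded DNAs with seven random bases just before the constant AC of the nick site (name = the seven bases) was cut by 3 µM recombinant His6-SUMO-tagged Rep nickase domain (300 nM DNA, 50 mM HEPES pH 8.0, 50 mM NaCl, 1 mM MnCl2, 1 h, 37 °C, three replicates). Uncut DNA was amplified and sequenced.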

[2] = system: T2, Rep nickase domain of banana bunchy top virus
T2 sequence (residues 1-94, tag not shown): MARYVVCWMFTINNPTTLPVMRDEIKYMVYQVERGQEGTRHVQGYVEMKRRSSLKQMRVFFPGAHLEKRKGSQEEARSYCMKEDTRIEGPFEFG
Procedure: as §1

[3] = system: T3, Rep nickase domain of cabbage leaf curl virus
T3 sequence (residues 1-116, tag not shown): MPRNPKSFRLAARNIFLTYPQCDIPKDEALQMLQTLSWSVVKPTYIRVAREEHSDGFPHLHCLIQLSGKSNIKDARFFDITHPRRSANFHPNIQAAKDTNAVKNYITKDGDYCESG
Procedure: as §1

[4] = system: T4, Rep nickase domain of chickpea chlorotic dwarf virus
T4 sequence (residues 1-124, tag not shown): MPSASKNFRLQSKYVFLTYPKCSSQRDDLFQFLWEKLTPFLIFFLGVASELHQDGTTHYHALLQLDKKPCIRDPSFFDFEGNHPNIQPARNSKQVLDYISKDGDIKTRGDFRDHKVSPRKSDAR
Procedure: as §1

[5] = system: T5, Rep nickase domain of faba bean necrotic yellows virus
T5 sequence (residues 1-98, tag not shown): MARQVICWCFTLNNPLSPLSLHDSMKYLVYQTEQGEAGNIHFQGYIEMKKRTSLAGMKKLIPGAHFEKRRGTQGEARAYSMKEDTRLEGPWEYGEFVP
Procedure: as §1

[6] = system: T6, Rep nickase domain of maize striate mosaic virus
T6 sequence (residues 1-117, tag not shown): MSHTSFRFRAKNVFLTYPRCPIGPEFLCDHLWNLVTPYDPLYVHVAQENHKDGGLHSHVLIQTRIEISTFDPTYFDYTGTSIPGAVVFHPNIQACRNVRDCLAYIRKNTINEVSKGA
Procedure: as §1

[7] = system: T7, Rep nickase domain of porcine circovirus 2
T7 sequence (residues 2-116, tag not shown): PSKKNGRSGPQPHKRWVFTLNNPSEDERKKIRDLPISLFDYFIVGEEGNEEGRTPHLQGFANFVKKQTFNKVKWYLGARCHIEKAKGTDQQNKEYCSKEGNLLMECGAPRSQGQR
Procedure: as §1

[8] = system: T8, Rep nickase domain of tomato golden mosaic virus
T8 sequence (residues 1-124, tag not shown): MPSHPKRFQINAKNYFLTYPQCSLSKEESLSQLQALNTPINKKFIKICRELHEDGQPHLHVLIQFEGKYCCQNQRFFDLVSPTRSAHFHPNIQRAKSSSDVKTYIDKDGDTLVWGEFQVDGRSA
Procedure: as §1

[9] = system: T9, Rep nickase domain of tomato yellow leaf curl virus
T9 sequence (residues 1-136, tag not shown): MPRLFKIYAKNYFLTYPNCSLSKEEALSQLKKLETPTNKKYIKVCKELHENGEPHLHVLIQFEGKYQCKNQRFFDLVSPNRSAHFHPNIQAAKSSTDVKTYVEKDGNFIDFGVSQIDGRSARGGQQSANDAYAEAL
Procedure: as §1

[10] = system: T10, Rep nickase domain of wheat dwarf virus
T10 sequence (residues 1-137, tag not shown): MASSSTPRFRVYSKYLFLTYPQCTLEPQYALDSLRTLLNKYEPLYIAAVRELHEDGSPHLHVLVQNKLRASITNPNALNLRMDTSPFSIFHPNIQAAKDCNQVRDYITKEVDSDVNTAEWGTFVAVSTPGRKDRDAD
Procedure: as §1

Row | Sequence | uncleaved DNA left (log2) [1] | uncleaved DNA left (log2) [2] | uncleaved DNA left (log2) [3] | uncleaved DNA left (log2) [4] | uncleaved DNA left (log2) [5] | uncleaved DNA left (log2) [6] | uncleaved DNA left (log2) [7] | uncleaved DNA left (log2) [8] | uncleaved DNA left (log2) [9] | uncleaved DNA left (log2) [10]
1 | CTATGTC | 0.0889 | -0.183 | -0.13 | -0.337 | 0.0236 | -1.08 | -0.0878 | -0.179 | -0.0537 | -0.117
2 | AAAACAG | 0.00923 | 0.0988 | -0.639 | -0.718 | 0.11 | -1.04 | 0.258 | 0.0957 | 0.0797 | -0.00919
3 | CGGGCGG | -0.0646 | -0.0488 | 0.266 | 0.948 | -0.104 | 1.24 | -0.0296 | 0.00708 | -0.0713 | -0.077
4 | CCATGTA | -0.247 | -0.15 | -0.614 | -1.11 | -0.0717 | -1.31 | -0.315 | -0.185 | -0.226 | -0.263
5 | TCATAGG | -0.0601 | -0.0295 | 0.391 | 1.17 | 0.019 | 1.13 | 0.0297 | 0.0451 | -0.0695 | 0.076
6 | TGAACCT | -0.0895 | -0.0565 | 0.181 | -1.26 | -0.0922 | 0.419 | -0.474 | -0.196 | -0.039 | 0.118
7 | GAGCAAC | 0.0297 | 0.092 | 0.224 | 0.597 | 0.0365 | 0.925 | -0.292 | -0.0161 | -0.00767 | 0.0665
8 | TGTAACC | -0.00669 | 0.135 | 0.169 | -0.00846 | -0.0722 | 0.942 | -0.928 | 0.0605 | 0.0375 | 0.0716
9 | TGAACAC | 0.0759 | 0.127 | 0.332 | 0.621 | 0.0447 | 0.894 | 0.0484 | 0.0616 | 0.0774 | 0.0864
10 | GAGTTAG | -0.021 | -0.0686 | -0.598 | -0.432 | -0.0752 | -0.824 | -0.181 | -0.0759 | -0.0921 | -0.17
11 | TATGCCT | -0.0425 | -0.309 | -1.22 | -2.78 | -0.0513 | -1.07 | -0.449 | -0.0873 | 0.00246 | -0.124
12 | GGTTTCC | -0.108 | -0.0805 | 0.319 | 0.907 | -0.0635 | 1.61 | -0.0281 | -0.1 | -0.0153 | 0.0469
13 | TCAGGTA | -0.0188 | -0.116 | 0.246 | 0.929 | -0.078 | 1.29 | -0.0184 | 0.0538 | -0.202 | 0.0653
14 | GAGCGAG | 0.0257 | 0.0711 | -0.0816 | 0.53 | -0.00993 | 0.725 | 0.131 | 0.0753 | 0.116 | 0.12
15 | AATGATC | -0.117 | -0.248 | 0.0132 | 0.438 | -0.112 | 0.645 | 0.0142 | -0.0831 | -0.0073 | -0.024
16 | TGAACGA | -0.0108 | 0.096 | -0.00349 | -0.121 | -0.0408 | -0.718 | 0.0698 | -0.0648 | 0.0159 | 0.0776

Row | Sequence | uncleaved DNA left (log2) [1] | uncleaved DNA left (log2) [2] | uncleaved DNA left (log2) [3] | uncleaved DNA left (log2) [4] | uncleaved DNA left (log2) [5] | uncleaved DNA left (log2) [6] | uncleaved DNA left (log2) [7] | uncleaved DNA left (log2) [8] | uncleaved DNA left (log2) [9] | uncleaved DNA left (log2) [10]
17 | CGGCTAA | 0.103 | 0.0887 | 0.0301 | 0.461 | 0.0889 | 0.805 | 0.0625 | 0.14 | 0.0097 | 0.0874
18 | ACACAGG | 0.141 | 0.239 | -0.47 | -0.218 | 0.17 | -1.09 | 0.256 | 0.226 | 0.18 | 0.149
19 | ATTTAAT | -3.12 | -3.29 | -0.216 | -1.35 | -0.175 | -0.496 | -3.91 | -0.184 | -0.0193 | -0.193
20 | CGACCGG | -0.0527 | -1.18e-05 | 0.0945 | 0.449 | -0.0394 | 0.131 | 0.123 | 0.041 | -0.0087 | 0.0639
21 | GCTCACC | 0.0482 | 0.0441 | 0.111 | -0.0282 | -0.0569 | 0.25 | -0.049 | 0.0578 | -0.118 | -0.0268
22 | TCTGTTC | -0.0556 | -0.0466 | 0.0667 | -0.769 | 0.131 | -0.456 | -0.0667 | -0.141 | -0.0235 | -0.135
23 | AGTTGTG | 0.0466 | 0.0134 | -0.652 | 0.264 | 0.0294 | -0.766 | 0.08 | 0.0162 | 0.164 | -0.00962
24 | GAGACCT | 0.0439 | 0.159 | 0.577 | 1.5 | 0.00581 | 1.94 | -1.79 | 0.111 | 0.0659 | 0.22
25 | GAGACAC | 0.08 | 0.13 | 0.873 | 2.04 | -0.0583 | 2.14 | 0.286 | 0.00303 | 0.0677 | 0.239
26 | GCAGTAG | 0.00598 | 0.0576 | -0.625 | -0.46 | -0.00174 | -1.05 | 0.13 | 0.0691 | -0.00292 | -0.0746
27 | TTGGGGT | 0.0575 | -0.0477 | 0.124 | 0.939 | -0.111 | 1.26 | 0.172 | -0.0674 | -0.168 | -0.0615
28 | TTATATC | -0.00732 | 0.038 | -0.134 | -0.434 | 0.0239 | -0.339 | 0.011 | 0.036 | 0.171 | 0.111
29 | CTAAAGC | 0.0587 | 0.109 | -0.083 | -0.255 | 0.138 | -1.04 | 0.362 | 0.102 | 0.106 | 0.0663
30 | TCGCGTC | 0.0334 | -0.11 | -0.647 | -0.792 | -0.0506 | -0.964 | -0.0333 | -0.106 | -0.127 | -0.254
31 | GAACAAG | 0.123 | 0.132 | -0.393 | -0.377 | 0.156 | -0.877 | 0.243 | 0.0628 | 0.147 | 0.125

Source: the supplement of paper PMC7826260
